Among all 39,000 compounds or so, about 220 (0.56%) showed activity. The list shows a part of the results.
tested on: Escherichia coli K-12 BW25113; assay: relative growth (OD600 normalised to plate interquartile mean) (fraction); higher = less growth inhibition, active = 0.2 or less; conditions: 50 µM; LB; incubation time: overnight (16-24 h)
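Note: static incubation at 37 °C against the wild-type strain, values averaged over two biological replicates.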

Structure (SMILES) | relative growth
COCC#Cc1ccc2c(c1)O[C@@H](CN(C)Cc1ccccc1F)[C@@H](C)CN([C@@H](C)CO)S2(=O)=O | inactive: 1.02
C[C@H]1CCCCO[C@@H](CN(C)Cc2ccc(C(F)(F)F)cc2)[C@@H](C)CN([C@@H](C)CO)C(=O)c2cc(NC(=O)Nc3cccc4ccccc34)ccc2O1 | inactive: 0.993
COc1ccc(S(=O)(=O)Nc2cccc3c2O[C@@H](CN(C)S(=O)(=O)c2ccc(OC)cc2)[C@H](C)CN([C@@H](C)CO)C3=O)cc1 | inactive: 1.01
CC(C)NC(=O)Nc1ccc2c(c1)C(=O)N([C@@H](C)CO)C[C@@H](C)[C@@H](CN(C)S(=O)(=O)c1ccc(Cl)cc1)O2 | inactive: 1.01
C[C@H]1CN([C@@H](C)CO)S(=O)(=O)c2ccc(/C=C/c3ccccc3)cc2O[C@@H]1CN(C)C(=O)Nc1cc(F)ccc1F | inactive: 0.993
COc1ccc(NC(=O)N(C)C[C@@H]2Oc3ccc(NC(=O)Nc4ccc(C(F)(F)F)cc4)cc3CC(=O)N([C@@H](C)CO)C[C@@H]2C)cc1 | inactive: 1.02
CNC(=O)Cn1c(=O)c2c(OC)c(C)cnc2n(C)c1=O | inactive: 0.976
NC(=O)N1CCC[C@@H]1C(=O)O | inactive: 1.03
COc1ccc(C)cc1S(=O)(=O)NCCO | inactive: 0.945
COc1ccc(NC(=O)N(C)C[C@H]2OCCCC[C@@H](C)Oc3ccc(NS(=O)(=O)c4ccc(F)cc4)cc3C(=O)N([C@H](C)CO)C[C@@H]2C)cc1 | inactive: 1.01
CC(C)NCC(O)c1cc(O)cc(O)c1 (stereo unspecified) | inactive: 0.847
C[C@H]1CN([C@@H](C)CO)S(=O)(=O)c2ccc(C#CC3CCCC3)cc2O[C@H]1CN(C)Cc1cncnc1 | inactive: 0.993
C[C@@H]1CN([C@@H](C)CO)C(=O)c2cc(NS(=O)(=O)c3cn(C)cn3)ccc2O[C@@H](C)CCCCO[C@@H]1CN(C)S(=O)(=O)c1ccccc1 | inactive: 0.996
C[C@@H]1CN([C@@H](C)CO)C(=O)Cc2cc(NC(=O)Nc3ccccc3)ccc2O[C@@H]1CN(C)Cc1ccc(C(F)(F)F)cc1 | inactive: 0.993
CC(C)NC(=O)Nc1cccc2c1O[C@@H](CN(C)Cc1ccc(C(=O)O)cc1)[C@@H](C)CN([C@H](C)CO)C2=O | inactive: 0.991
C[C@H](CO)N1C[C@H](C)[C@H](CN(C)S(=O)(=O)c2cccs2)OCCCC[C@H](C)Oc2ccc(NC(=O)C3CCCCC3)cc2C1=O | inactive: 1.03
O=C(O)CCCCC1CCSS1 (stereo unspecified) | inactive: 1.11
Cc1cc(Cn2c(=O)n(Cc3cnc(C)s3)c(=O)c3cc(S(=O)(=O)NC4(C)CC4)ccc32)n(C)n1 | inactive: 0.999
CC(=O)/N=c1\sc(S(N)(=O)=O)nn1C | inactive: 1.01
COc1cccc(-c2ccc([C@@H](Oc3cc(-c4ccc(C[C@H](N)C(=O)O)cc4)nc(N)n3)C(F)(F)F)cc2)c1 | inactive: 0.869
C[C@H](CO)N1C[C@H](C)[C@@H](CN(C)C(=O)Cc2ccccc2)Oc2ncc(C#CC3(O)CCCC3)cc2C1=O | inactive: 0.965

Structure (SMILES) | relative growth
C[C@@H]1CCCCO[C@H](CN(C)C(=O)Nc2ccc(C(F)(F)F)cc2)[C@@H](C)CN([C@H](C)CO)C(=O)c2cc(NC(=O)C3CCCCC3)ccc2O1 | inactive: 1.02
Cc1ccc(S(=O)(=O)N(C)C[C@@H]2Oc3ncc(C#CC(C)(C)O)cc3C(=O)N([C@H](C)CO)C[C@@H]2C)cc1 | inactive: 1.02
COCC#Cc1cnc2c(c1)C(=O)N([C@@H](C)CO)C[C@H](C)[C@H](CN(C)C(=O)Nc1ccc(OC)cc1)O2 | inactive: 0.994
C[C@@H]1CCCCO[C@@H](CN(C)Cc2ccc(Cl)c(Cl)c2)[C@H](C)CN([C@@H](C)CO)C(=O)c2cc(NS(=O)(=O)c3cccs3)ccc2O1 | inactive: 1.02
CCN(CC)S(=O)(=O)c1ccc(C(=O)O)cc1 | inactive: 1.05
C[C@H](CO)N1C[C@H](C)[C@H](CN(C)Cc2ccc(C(=O)Nc3ccccc3N)cc2)Oc2ccc(NC(=O)C3CCCCC3)cc2C1=O | inactive: 0.994
COCC(=O)Nc1ccc2c(c1)OC[C@H](C)N(Cc1cccc(F)c1)C[C@@H](C)[C@@H](OC)CN(C)C2=O | inactive: 1.02
CC(C)NC(=O)N(C)C[C@@H]1Oc2ccc(NS(=O)(=O)c3ccc(F)cc3)cc2CC(=O)N([C@@H](C)CO)C[C@@H]1C | inactive: 1.01
COc1ccc(S(=O)(=O)N(C)C[C@@H]2Oc3ccc(NS(=O)(=O)c4ccc(F)cc4)cc3C(=O)N([C@@H](C)CO)C[C@H]2C)cc1 | inactive: 1.02
C[C@@H]1CN([C@H](C)CO)C(=O)Cc2cc(NC(=O)CCC(F)(F)F)ccc2O[C@@H]1CN(C)Cc1ccc(Oc2ccccc2)cc1 | inactive: 1
C[C@H]1CN([C@@H](C)CO)C(=O)c2cc(NC(=O)Cc3cn(C)c4ccccc34)ccc2O[C@@H]1CN(C)Cc1ccc(-c2ccccc2)cc1 | inactive: 1
Cc1ccc(S(=O)(=O)N(C)C[C@@H]2OCCCC[C@@H](C)Oc3ccc(NS(=O)(=O)c4ccc(F)cc4)cc3C(=O)N([C@H](C)CO)C[C@@H]2C)cc1 | inactive: 1.01
C[C@@H]1CN([C@@H](C)CO)S(=O)(=O)c2ccc(C#Cc3ccccc3F)cc2O[C@@H]1CN(C)C(=O)Cc1ccncc1 | inactive: 1.02
N#Cc1ccc(O)c(O)c1 | inactive: 0.967
C[C@@H]1CCCCO[C@H](CN(C)Cc2ccccc2)[C@H](C)CN([C@@H](C)CO)C(=O)c2cc(NC(=O)C3CCCCC3)ccc2O1 | inactive: 1
C[C@H]1CN([C@@H](C)CO)C(=O)Cc2cc(NS(C)(=O)=O)ccc2O[C@@H]1CN(C)C(=O)Nc1ccccc1 | inactive: 0.979
COc1ccc(CN(C)C[C@@H]2Oc3c(NC(=O)c4ccc(-c5nccs5)cc4)cccc3C(=O)N([C@H](C)CO)C[C@@H]2C)cc1 | inactive: 0.992
COc1ccc(NC(=O)Nc2ccc3c(c2)C(=O)N([C@H](C)CO)C[C@@H](C)[C@H](CN(C)Cc2ccncc2)OCCCC[C@H](C)O3)cc1 | inactive: 1.03
Cc1noc(C)c1S(=O)(=O)Nc1ccc2c(c1)CC(=O)N([C@@H](C)CO)C[C@@H](C)[C@H](CN(C)C(=O)NC(C)C)O2 | inactive: 0.985
C[C@H]1CN([C@@H](C)CO)C(=O)c2cccc(NC(=O)Nc3ccc(C(F)(F)F)cc3)c2O[C@@H]1CN(C)Cc1ccncc1 | inactive: 0.885
COCCN1C[C@H]2COC[C@@H](C(=O)N3CCCO3)[C@H]2C1 | inactive: 1

Structure (SMILES) | relative growth
Cc1ccc(S(=O)(=O)N(C)C[C@@H]2OCCCC[C@H](C)Oc3ccc(NC(=O)Nc4ccc(C(F)(F)F)cc4)cc3C(=O)N([C@H](C)CO)C[C@@H]2C)cc1 | inactive: 0.991
C[C@@H]1CN([C@H](C)CO)C(=O)c2cc(NS(=O)(=O)c3cn(C)cn3)ccc2O[C@@H](C)CCCCO[C@H]1CN(C)S(=O)(=O)c1ccc(F)cc1 | inactive: 1
C[C@H](CO)N1C[C@H](C)[C@@H](CN(C)Cc2ccc(Oc3ccccc3)cc2)Oc2ccc(NC(=O)Nc3ccccc3)cc2CC1=O | inactive: 1.07
C[C@H]1CN([C@@H](C)CO)S(=O)(=O)c2ccc(C#Cc3ccc(F)cc3)cc2O[C@@H]1CN(C)C(=O)CN(C)C | inactive: 1.03
CS(=O)(=O)N1CCO[C@]2(COCCN(c3cncnc3)C2)C1 | inactive: 0.995
O=C(CCCCCC(=O)N/N=C/[C@H](O)[C@@H](O)[C@@H](O)[C@H](O)C(=O)O)NO | inactive: 1
C/C=C/c1ccc2c(c1)O[C@@H](CN(C)S(=O)(=O)c1ccccc1OC)[C@H](C)CN([C@@H](C)CO)S2(=O)=O | inactive: 1.02
C[C@H](CO)N1C[C@H](C)[C@@H](CN(C)C(=O)Nc2ccc(F)cc2)Oc2ccc(NS(=O)(=O)c3cn(C)cn3)cc2CC1=O | inactive: 0.991
COc1ccc(-c2cc(=O)c3c(O)cc(OC)cc3o2)cc1 | inactive: 1.07
Cc1noc(C)c1NC(=O)Nc1ccc2c(c1)C(=O)N([C@@H](C)CO)C[C@H](C)[C@@H](CN(C)Cc1ccc(Cl)c(Cl)c1)O2 | inactive: 0.997
C[C@@H]1CN([C@@H](C)CO)C(=O)Cc2cc(NC(=O)Nc3ccccc3)ccc2O[C@@H]1CN(C)Cc1ccc(Oc2ccccc2)cc1 | inactive: 0.967
O=C(C[C@H]1CC[C@H]2[C@@H](COC[C@@H](O)CN2C(=O)Nc2cccc(F)c2)O1)NCCCN1CCOCC1 | inactive: 0.94
C[C@H](CO)N1C[C@H](C)[C@@H](CN(C)C(=O)Nc2cccc3ccccc23)Oc2c(NS(=O)(=O)c3ccc(F)cc3)cccc2C1=O | inactive: 0.969
Cc1ccc(C(=N)NO)n1C | inactive: 0.849
Cc1noc(C)c1S(=O)(=O)N(C)C[C@H]1Oc2ccc(NC(=O)Cn3cnnn3)cc2CC(=O)N([C@@H](C)CO)C[C@H]1C | inactive: 1.01
Cc1ccc(S(=O)(=O)N(C)C[C@H]2OCCCC[C@H](C)Oc3ccc(NS(=O)(=O)c4ccc(Cl)cc4)cc3C(=O)N([C@H](C)CO)C[C@@H]2C)cc1 | inactive: 1.03
Cc1noc(C)c1NC(=O)Nc1cccc2c1O[C@@H](CN(C)Cc1ccc(Cl)c(Cl)c1)[C@H](C)CN([C@@H](C)CO)C2=O | inactive: 0.995
CO[C@@H]1CN(C)C(=O)c2ccc(NC(=O)C3CC3)cc2OC[C@@H](C)N(C(=O)C2CCOCC2)C[C@@H]1C | inactive: 1.01
O=C(C[C@H]1CC[C@H]2[C@@H](COC[C@H](O)CN2C(=O)Nc2cccc(F)c2)O1)NCCCN1CCOCC1 | inactive: 0.897

Reference: the supplement of paper PMC9446081
